Each structure is given as a SMILES string. Some of the results follow.

Our source for the cytotoxicity call and growth inhibition call values is the antibiotic and cytotoxicity screens of Wong et al. (2023).

In one test the test system is HSkMC. The experiment in a line: cytotoxicity call (relative viability < 0.9). As to conditions: 10 µM.
In a further test the test system is HepG2. In words: cytotoxicity call (relative viability < 0.9). The conditions noted are these: 10 µM.
For the next test, the system named is S. aureus RN4220. The experiment in a line: growth inhibition call (relative growth <= 0.2). The conditions noted are these: 50 µM.

In the case of `Cc1noc(C)c1NC(=O)N(C)C[C@@H]1Oc2ccc(NC(=O)Nc3ccc(C(F)(F)F)cc3)cc2CC(=O)N([C@@H](C)CO)C[C@@H]1C`, the cytotoxicity call in the test with HSkMC and in the test with HepG2 was “inactive” each time. Moreover, the growth inhibition call in the test on S. aureus RN4220 is “inactive”.
In the case of `CNC[C@H]1Oc2cc(C#CCN(C)C)ccc2S(=O)(=O)N([C@@H](C)CO)C[C@H]1C`, the cytotoxicity call in the test on HSkMC and in the test on HepG2 was “inactive” each time. The growth inhibition call with S. aureus RN4220 was “inactive”.
As to `C[C@@H]1CN([C@@H](C)CO)C(=O)Cc2cc(NS(=O)(=O)c3ccc(F)cc3)ccc2O[C@H]1CN(C)S(=O)(=O)c1ccc(F)cc1`, the cytotoxicity call with HSkMC and in the test with HepG2 was “inactive” in each case. Moreover, the growth inhibition call with S. aureus RN4220 was “inactive”.
Take `Nn1c(Nc2ccc(Cl)cc2)nncc1=O`: the cytotoxicity call in the test on HSkMC and with HepG2 was “inactive” in each case. The growth inhibition call with S. aureus RN4220 is “inactive”.
Regarding `C[C@H]1CN([C@@H](C)CO)C(=O)Cc2cc(NC(=O)NC3CCCCC3)ccc2O[C@@H]1CN(C)Cc1ccc(C(F)(F)F)cc1`, the cytotoxicity call in the test on HSkMC and with HepG2 was “inactive” throughout. Further, the growth inhibition call in the test on S. aureus RN4220 is “inactive”.
In the case of `Nc1nc(C(=CCC(=O)O)C(=O)NC2C(=O)N3C(C(=O)O)=CCSC23)cs1` (configuration not stated), the cytotoxicity call in the test with HSkMC and with HepG2 was “inactive” each time. Besides, the growth inhibition call in the test on S. aureus RN4220 is “active”.
In the case of `CN1CCN(C(=O)Cn2cc(-c3ccc(C(=O)NO)cc3)nn2)CC1`, the cytotoxicity call with HSkMC and in the test with HepG2 was “inactive” in each case. Further, the growth inhibition call with S. aureus RN4220 is “inactive”.
For `C[C@@H]1CN([C@@H](C)CO)C(=O)c2cc(NC(=O)Nc3ccc4c(c3)OCO4)ccc2O[C@@H](C)CCCCO[C@H]1CN(C)C(=O)Nc1ccccc1`, the cytotoxicity call in the test on HSkMC and with HepG2 was “inactive” throughout. The growth inhibition call in the test with S. aureus RN4220 was “inactive”.
Consider `Cc1ccc2cc(-c3c(C)ccc(C(=O)c4c(-c5ccccc5)n(C)n(-c5ccccc5)c4=O)c3N)ccc2n1`, for which the cytotoxicity call in the test with HSkMC and in the test on HepG2 was “inactive” each time. Besides, in the test with S. aureus RN4220, the growth inhibition call was “inactive”.
Take `COc1ccc(CN(C)C[C@H]2Oc3c(NC(=O)c4ccc(-c5nccs5)cc4)cccc3C(=O)N([C@H](C)CO)C[C@@H]2C)cc1`: the cytotoxicity call with HSkMC and in the test on HepG2 was “inactive” throughout. Besides, the growth inhibition call in the test with S. aureus RN4220 was “inactive”.
As to `C[C@@H]1CCCCO[C@H](CN(C)C(=O)NC2CCCCC2)[C@H](C)CN([C@@H](C)CO)C(=O)c2cc(NC(=O)Cc3ccccc3)ccc2O1`, the cytotoxicity call with HSkMC and in the test with HepG2 was “inactive” throughout. In the test on S. aureus RN4220, the growth inhibition call was “inactive”.
Consider `C[C@@H]1CN([C@@H](C)CO)C(=O)c2cc(NC(=O)CCC(F)(F)F)ccc2O[C@@H](C)CCCCO[C@H]1CN(C)C(=O)Cc1ccccc1`, for which the cytotoxicity call in the test with HSkMC and with HepG2 was “inactive” in each case. Besides, the growth inhibition call with S. aureus RN4220 was “inactive”.
For the compound `Cc1ccc(C(=O)N(CC(N)=O)CC(N)=O)cc1`, the cytotoxicity call in the test with HSkMC and in the test on HepG2 was “inactive” in each case. In the test with S. aureus RN4220, the growth inhibition call is “inactive”.
Regarding `O=C(C[C@@H]1CC[C@@H]2[C@H](COC[C@@H](O)CN2C(=O)Nc2cccc(Cl)c2)O1)NCCCN1CCOCC1`, the cytotoxicity call in the test with HSkMC and in the test with HepG2 was “inactive” throughout. Besides, in the test on S. aureus RN4220, the growth inhibition call is “active”.
In the case of `C[C@H]1CN([C@@H](C)CO)C(=O)Cc2cc(NC(=O)Nc3ccc4c(c3)OCO4)ccc2O[C@@H]1CN(C)Cc1ccc(Cl)c(Cl)c1`, the cytotoxicity call in the test with HSkMC and in the test with HepG2 was “inactive” in each case. The growth inhibition call in the test on S. aureus RN4220 is “inactive”.
Consider `C[C@H](CO)N1C[C@H](C)[C@@H](CN(C)Cc2ccc(C(=O)Nc3ccccc3N)cc2)Oc2c(NS(=O)(=O)c3cn(C)cn3)cccc2C1=O`, for which the cytotoxicity call in the test on HSkMC and in the test with HepG2 was “inactive” in each case. For the same compound, the growth inhibition call in the test on S. aureus RN4220 was “inactive”.
On to `Cc1ccc(S(=O)(=O)Nc2ccc3c(c2)C(=O)N([C@@H](C)CO)C[C@@H](C)[C@H](CN(C)Cc2ccc(C(F)(F)F)cc2)OCCCC[C@H](C)O3)cc1`, for which the cytotoxicity call with HSkMC is “inactive”. The cytotoxicity call in the test on HepG2 was “active”. Also, in the test on S. aureus RN4220, the growth inhibition call is “inactive”.
`C[C@@H]1CN([C@H](C)CO)C(=O)c2cccc(NC(=O)CCCCCC(=O)Nc3ccccc3N)c2O[C@H]1CN(C)C(=O)Nc1cccc2ccccc12`: the cytotoxicity call in the test on HSkMC and in the test on HepG2 was “inactive” throughout. Besides, the growth inhibition call with S. aureus RN4220 was “inactive”.
`COc1ccc(NC(=O)Nc2ccc3c(c2)C(=O)N([C@H](C)CO)C[C@H](C)[C@H](CN(C)C(=O)Nc2c(C)noc2C)OCCCC[C@@H](C)O3)cc1`: the cytotoxicity call in the test on HSkMC and in the test on HepG2 was “inactive” in each case. Moreover, in the test with S. aureus RN4220, the growth inhibition call is “inactive”.
For `COCCCNC(=O)[C@@H]1c2ccccc2C(=O)N(Cc2cc(C(F)(F)F)cc(C(F)(F)F)c2)[C@H]1c1ccc(CO)cc1`, the cytotoxicity call in the test with HSkMC and in the test on HepG2 was “inactive” in each case. The growth inhibition call with S. aureus RN4220 was “inactive”.
Turning to `C[C@@H]1CN([C@H](C)CO)C(=O)c2cc(NC(=O)Nc3ccccc3)ccc2O[C@@H]1CN(C)Cc1ccc(C(F)(F)F)cc1`, in the test with HSkMC, the cytotoxicity call was “active”. In addition, the cytotoxicity call in the test with HepG2 is “inactive”. Also, the growth inhibition call with S. aureus RN4220 is “inactive”.
In the case of `Cc1ccc(-c2ccc3c(c2)O[C@H](CN(C)C(=O)NC(C)C)[C@@H](C)CN([C@H](C)CO)S3(=O)=O)cc1`, the cytotoxicity call in the test on HSkMC (human skeletal muscle cells) and in the test with HepG2 was “inactive” each time. In the test on S. aureus RN4220, the growth inhibition call was “inactive”.
Consider `COc1cccc(CNC(=O)C[C@H]2C=C[C@@H](NC(=O)C3CCOCC3)[C@H](CO)O2)c1`, for which the cytotoxicity call in the test with HSkMC and in the test with HepG2 was “inactive” throughout. In addition, the growth inhibition call with S. aureus RN4220 was “inactive”.
Regarding `CC(=O)NCc1nccc(N2CCCC2)n1`, the cytotoxicity call in the test with HSkMC and with HepG2 was “inactive” in each case. In addition, the growth inhibition call in the test on S. aureus RN4220 is “inactive”.
